Experimental data as given in the supplement of paper PMC7826260.
This is one part of the list. The data describe in vitro nicking of single-stranded DNA by Rep domains (3 µM enzyme, 1 h, 37 °C); shown is the middle of each 90-letter strand. A value is the log2 ratio of uncut reads to the pool without enzyme; more negative means more cut, near 0 not cut, and no call is made. Shares of all reads are compared, so uncut sequences can rise above 0 when many others are cut.

Experiments:
Test in all cases: uncleaved DNA left, log2 of reads against the no-enzyme library (log2 ratio); higher = less cleavage (more negative = more Rep cleavage of the k-mer); sequences stand for … in CTCGTCCG…ACCGGAGA
[1] = system: T1, Rep nickase domain of Muscovy duck circovirus
T1 sequence (residues 1-111, tag not shown): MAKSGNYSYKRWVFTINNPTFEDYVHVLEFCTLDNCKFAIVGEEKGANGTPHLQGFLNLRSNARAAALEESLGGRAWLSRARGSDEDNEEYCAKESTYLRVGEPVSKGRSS
Protocol: (§1)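 A pool of 90-nt single-stranded DNAs with seven random bases just before the constant AC of the nick site (name = the seven bases) was cut by 3 µM recombinant His6-SUMO-tagged Rep nickase domain (300 nM DNA, 50 mM HEPES pH 8.0, 50 mM NaCl, 1 mM MnCl2, 1 h, 37 °C, three replicates). Uncut DNA was amplified and sequenced.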

[2] = system: T2, Rep nickase domain of banana bunchy top virus
T2 sequence (residues 1-94, tag not shown): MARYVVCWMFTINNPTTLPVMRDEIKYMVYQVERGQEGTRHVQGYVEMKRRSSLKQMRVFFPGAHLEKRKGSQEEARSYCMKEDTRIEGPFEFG
Protocol: as §1

[3] = system: T3, Rep nickase domain of cabbage leaf curl virus
T3 sequence (residues 1-116, tag not shown): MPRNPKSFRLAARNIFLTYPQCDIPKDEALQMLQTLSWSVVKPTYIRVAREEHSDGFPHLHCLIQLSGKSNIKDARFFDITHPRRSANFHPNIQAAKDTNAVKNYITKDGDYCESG
Protocol: as §1

[4] = system: T4, Rep nickase domain of chickpea chlorotic dwarf virus
T4 sequence (residues 1-124, tag not shown): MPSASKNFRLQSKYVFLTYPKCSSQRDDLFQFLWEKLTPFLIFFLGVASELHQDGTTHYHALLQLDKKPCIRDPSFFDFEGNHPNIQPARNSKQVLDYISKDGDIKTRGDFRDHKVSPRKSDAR
Protocol: as §1

[5] = system: T5, Rep nickase domain of faba bean necrotic yellows virus
T5 sequence (residues 1-98, tag not shown): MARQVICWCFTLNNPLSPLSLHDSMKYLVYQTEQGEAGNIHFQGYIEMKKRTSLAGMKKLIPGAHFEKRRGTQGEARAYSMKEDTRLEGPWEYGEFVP
Protocol: as §1

[6] = system: T6, Rep nickase domain of maize striate mosaic virus
T6 sequence (residues 1-117, tag not shown): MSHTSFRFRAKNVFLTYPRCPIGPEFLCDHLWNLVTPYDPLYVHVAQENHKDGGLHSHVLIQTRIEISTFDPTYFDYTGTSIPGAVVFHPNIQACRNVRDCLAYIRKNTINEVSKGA
Protocol: as §1

[7] = system: T7, Rep nickase domain of porcine circovirus 2
T7 sequence (residues 2-116, tag not shown): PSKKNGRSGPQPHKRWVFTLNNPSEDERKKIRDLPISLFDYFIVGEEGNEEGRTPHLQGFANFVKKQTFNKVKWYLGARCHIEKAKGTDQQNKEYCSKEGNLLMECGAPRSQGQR
Protocol: as §1

[8] = system: T8, Rep nickase domain of tomato golden mosaic virus
T8 sequence (residues 1-124, tag not shown): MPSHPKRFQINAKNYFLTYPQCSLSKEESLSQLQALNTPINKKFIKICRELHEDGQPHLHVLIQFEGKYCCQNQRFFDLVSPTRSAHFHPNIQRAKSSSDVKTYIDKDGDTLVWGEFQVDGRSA
Protocol: as §1

[9] = system: T9, Rep nickase domain of tomato yellow leaf curl virus
T9 sequence (residues 1-136, tag not shown): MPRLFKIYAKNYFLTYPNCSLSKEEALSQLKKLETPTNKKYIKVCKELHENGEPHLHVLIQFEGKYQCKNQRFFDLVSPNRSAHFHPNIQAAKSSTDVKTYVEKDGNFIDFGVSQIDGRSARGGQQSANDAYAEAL
Protocol: as §1

[10] = system: T10, Rep nickase domain of wheat dwarf virus
T10 sequence (residues 1-137, tag not shown): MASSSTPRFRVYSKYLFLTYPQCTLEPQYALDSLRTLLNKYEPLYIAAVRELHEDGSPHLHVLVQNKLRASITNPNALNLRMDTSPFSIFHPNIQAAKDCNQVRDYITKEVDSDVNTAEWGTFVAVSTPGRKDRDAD
Protocol: as §1

Row | Sequence | uncleaved DNA left (log2) [1] | uncleaved DNA left (log2) [2] | uncleaved DNA left (log2) [3] | uncleaved DNA left (log2) [4] | uncleaved DNA left (log2) [5] | uncleaved DNA left (log2) [6] | uncleaved DNA left (log2) [7] | uncleaved DNA left (log2) [8] | uncleaved DNA left (log2) [9] | uncleaved DNA left (log2) [10]
1 | GGAATGT | 0.0468 | 0.196 | 0.694 | 1.74 | 0.127 | 1.98 | 0.228 | 0.121 | 0.123 | 0.14
2 | GTCGGCC | 0.0532 | 0.0804 | 0.276 | 0.856 | 0.0294 | 1.01 | 0.147 | 0.149 | 0.127 | 0.108
3 | TATTCCA | -2.78 | -1.34 | -0.137 | -2.36 | -0.0315 | -0.411 | -2.26 | -0.124 | 0.119 | -0.148
4 | TTAGGCG | -0.0396 | -0.0464 | -0.79 | 0.268 | 0.0768 | -0.877 | 0.224 | 0.0408 | -0.0123 | -0.105
5 | GGTTATG | 0.0156 | -0.0155 | 0.177 | 0.482 | -0.119 | 0.385 | 0.14 | 0.0693 | 0.0583 | -0.0249
6 | GCATGTT | -2.87 | -0.166 | -1.05 | -1.99 | 0.00177 | -0.324 | -2.66 | -0.146 | 0.0429 | -0.355
7 | TACAAAT | -0.0475 | -0.1 | -0.937 | -2.65 | 0.0342 | -0.661 | -2.52 | -0.0166 | -0.114 | -0.00713
8 | CCTCCTA | -0.0948 | -0.073 | -0.224 | -1.05 | -0.0604 | -0.449 | -0.273 | -0.11 | -0.139 | -0.067
9 | TTCATGT | -0.0159 | -0.125 | -0.0729 | -0.481 | 0.023 | -0.783 | -0.192 | -0.147 | -0.0119 | -0.113
10 | AAAATTT | -0.325 | -0.307 | -3.76 | -3.48 | 0.0656 | -2.17 | -3.56 | -1.74 | -0.0276 | -3.47
11 | TATATCA | 0.0941 | 0.129 | 0.52 | -0.55 | 0.0203 | 0.855 | -0.0539 | 0.0268 | 0.157 | 0.271
12 | GGTTAGG | 0.102 | 0.0286 | 0.402 | 1.17 | 0.00288 | 1.46 | 0.184 | 0.184 | 0.0532 | 0.109
13 | AAACCTG | -0.0817 | -0.00974 | 0.0432 | 0.412 | 0.0102 | 0.979 | 0.0306 | 0.0711 | -0.0186 | -0.00175
14 | GTCAGAA | 0.267 | 0.166 | 0.487 | 0.968 | 0.217 | 1.67 | 0.251 | 0.185 | 0.164 | 0.184
15 | GCAGGAA | 0.222 | 0.134 | 0.465 | 1.28 | 0.119 | 1.22 | 0.189 | 0.157 | -0.0131 | 0.215
16 | GCTAGCG | 0.112 | 0.0518 | -0.382 | 0.932 | 0.0567 | 0.167 | 0.0704 | -0.00613 | 0.0373 | 0.0497
17 | TCTTCTG | -0.0371 | -0.133 | -0.257 | -0.231 | -0.044 | -0.491 | 0.0106 | -0.0998 | -0.208 | -0.00488
18 | CCTTCTA | -0.16 | -0.126 | -0.0451 | -1.44 | 0.00879 | -0.764 | -0.3 | 0.0136 | -0.14 | -0.124
19 | GTTTAGA | -0.0121 | -0.0409 | 0.254 | 0.788 | 0.0298 | 1.52 | 0.132 | 0.0322 | 0.0364 | 0.0112
20 | TTGTGTC | 0.155 | -0.0263 | -0.0957 | -0.334 | 0.177 | -0.901 | 0.0501 | 0.0354 | 0.168 | 0.029
21 | TACGACG | -0.0549 | 0.0115 | -0.413 | -0.585 | -0.0375 | -0.886 | 0.0458 | -0.0735 | -0.00148 | 0.0776
22 | GCTCATT | 0.0644 | 0.08 | 0.288 | 0.134 | 0.077 | 0.704 | -0.352 | -0.0558 | 0.201 | 0.151
23 | GCGTGTG | 0.0143 | -0.111 | -0.588 | -0.308 | -0.156 | -0.572 | 0.0163 | 0.0244 | -0.0519 | -0.228
24 | AGTTTAG | 0.15 | -0.0186 | -0.71 | -0.447 | 0.0586 | -1.25 | 0.12 | 0.0562 | 0.0401 | -0.0278
25 | ATCAGCA | 0.0448 | 0.0908 | -0.419 | -1.03 | 0.0813 | -1.06 | -0.0591 | 0.0709 | 0.167 | 0.00889
26 | AAAGCGT | 0.0468 | 0.0203 | -0.583 | -0.517 | 0.134 | -0.989 | 0.196 | 0.0626 | 0.0854 | -0.0882
27 | AGTAAAA | 0.0932 | -0.012 | 0.175 | 0.383 | 0.1 | -0.169 | -0.361 | 0.141 | 0.101 | 0.0672
28 | TCACCAT | -0.0442 | -0.0297 | -0.0482 | -1.29 | -0.0751 | -0.348 | -0.384 | -0.239 | 0.0785 | -0.0137
29 | AAGCAAT | -0.146 | 0.0133 | 0.195 | 0.713 | -0.00296 | 1.22 | -2.71 | -0.0212 | -0.134 | -0.0292
30 | ACGATCT | -0.146 | -0.155 | -0.277 | -1.73 | -0.0682 | -0.515 | -0.303 | -0.196 | -0.159 | -0.238
